In US10299477B2 (priority 2015, dated 2019):

What was measured:
[1] = test system: Magnaporthe grisea; type: in vivo; settings: rice blast, Magnaporthe grisea; 250 ppm spray
[2] = test system: Phytophthora infestans; type: in vivo; settings: late blight on tomato, Phytophthora infestans; 250 ppm spray, 5-10 days after inoculation

Compound | Test A (control value class) [1] | Test F (control value class) [2]
O=c1ccc(-c2cccc(Cl)c2F)c(-c2c(F)cccc2F)n1CC(F)F [Compound 494] | H (H shows more than 50% of control values) | L (L shows 50% or less of control values)
O=c1c(Cl)cc(-c2cccc(Cl)c2F)c(-c2c(F)cccc2F)n1CC(F)F [Compound 495] | H (H shows more than 50% of control values) | L (L shows 50% or less of control values)
COc1ccc(Cl)c(-c2ccc(=O)n(C3CC3)c2-c2c(F)cccc2F)c1 [Compound 496] | H (H shows more than 50% of control values) | L (L shows 50% or less of control values)
CCn1c(-c2c(F)cccc2F)c(-c2cc(F)ccc2F)cc(C)c1=O [Compound 497] | H (H shows more than 50% of control values) | L (L shows 50% or less of control values)
COc1ccc(Cl)c(-c2cc(Cl)c(=O)n(C3CC3)c2-c2c(F)cccc2F)c1 [Compound 498] | H (H shows more than 50% of control values) | L (L shows 50% or less of control values)
Cc1cc(-c2cc(F)ccc2F)c(-c2c(F)cccc2F)n(C)c1=O [Compound 499] | H (H shows more than 50% of control values) | L (L shows 50% or less of control values)
Cn1c(-c2c(F)cc(F)cc2F)c(-c2cccc(F)c2Cl)cc(Cl)c1=O [Compound 500] | H (H shows more than 50% of control values) | L (L shows 50% or less of control values)
CCn1c(-c2c(F)cc(F)cc2F)c(-c2cccc(F)c2Cl)cc(C)c1=O [Compound 501] | H (H shows more than 50% of control values) | H (H shows more than 50% of control values)
Cn1c(-c2c(F)cc(F)cc2F)c(-c2cccc(F)c2Cl)cc(Br)c1=O [Compound 503] | H (H shows more than 50% of control values) | L (L shows 50% or less of control values)
COc1cc(F)c(-c2c(-c3cccc(F)c3Cl)cc(Cl)c(=O)n2C)c(F)c1 [Compound 504] | H (H shows more than 50% of control values) | L (L shows 50% or less of control values)
Cc1cc(-c2cccc(F)c2Cl)c(-c2c(F)cc(F)cc2F)n(C)c1=O [Compound 505] | H (H shows more than 50% of control values) | L (L shows 50% or less of control values)
CCn1c(-c2c(F)cccc2F)c(-c2cccc(F)c2Cl)ccc1=O [Compound 506] | H (H shows more than 50% of control values) | L (L shows 50% or less of control values)
CCn1c(-c2c(F)cccc2F)c(-c2cccc(F)c2Cl)cc(Cl)c1=O [Compound 507] | H (H shows more than 50% of control values) | L (L shows 50% or less of control values)
Cn1c(-c2c(F)cccc2F)c(-c2cccc(F)c2Cl)ccc1=O [Compound 508] | H (H shows more than 50% of control values) | H (H shows more than 50% of control values)
Cn1c(-c2c(F)cccc2F)c(-c2cccc(F)c2Cl)cc(Cl)c1=O [Compound 509] | H (H shows more than 50% of control values) | L (L shows 50% or less of control values)
O=c1ccc(-c2cccc(F)c2Cl)c(-c2c(F)cccc2F)n1CC(F)F [Compound 510] | H (H shows more than 50% of control values) | L (L shows 50% or less of control values)
O=c1c(Cl)cc(-c2cccc(F)c2Cl)c(-c2c(F)cccc2F)n1CC(F)F [Compound 511] | H (H shows more than 50% of control values) | L (L shows 50% or less of control values)
CCn1c(-c2c(F)cccc2F)c(-c2cc(F)ccc2Cl)cc(F)c1=O [Compound 512] | H (H shows more than 50% of control values) | L (L shows 50% or less of control values)
Cn1c(-c2c(F)cccc2F)c(-c2cc(F)ccc2Cl)cc(F)c1=O [Compound 513] | H (H shows more than 50% of control values) | L (L shows 50% or less of control values)
CCN1C(=O)CCC(c2ccccc2F)=C1c1c(F)cc(F)cc1F [Compound 514] | H (H shows more than 50% of control values) | L (L shows 50% or less of control values)
COc1cc(F)c(-c2c(-c3cccc(F)c3Cl)cc(C)c(=O)n2C)c(F)c1 [Compound 517] | H (H shows more than 50% of control values) | L (L shows 50% or less of control values)
CCn1c(-c2c(F)cccc2F)c(-c2cccc(F)c2F)ccc1=O [Compound 518] | H (H shows more than 50% of control values) | H (H shows more than 50% of control values)

Compound | Test A (control value class) [1] | Test F (control value class) [2]
CCn1c(-c2c(F)cccc2F)c(-c2cccc(F)c2F)cc(Cl)c1=O [Compound 519] | H (H shows more than 50% of control values) | L (L shows 50% or less of control values)
CCn1c(-c2c(F)cccc2F)c(-c2cccc(F)c2F)cc(Br)c1=O [Compound 520] | H (H shows more than 50% of control values) | L (L shows 50% or less of control values)
Cc1cc(-c2cccc(Cl)c2F)c(-c2c(F)cccc2F)n(CC(F)F)c1=O [Compound 521] | H (H shows more than 50% of control values) | L (L shows 50% or less of control values)
CCn1c(-c2c(F)cccc2F)c(-c2cc(Cl)ccc2F)ccc1=O [Compound 522] | H (H shows more than 50% of control values) | L (L shows 50% or less of control values)
CCn1c(-c2c(F)cccc2F)c(-c2cc(Cl)ccc2F)cc(Cl)c1=O [Compound 523] | H (H shows more than 50% of control values) | L (L shows 50% or less of control values)
Cn1c(-c2c(F)cccc2F)c(-c2cc(Cl)ccc2F)ccc1=O [Compound 524] | H (H shows more than 50% of control values) | L (L shows 50% or less of control values)
Cn1c(-c2c(F)cccc2F)c(-c2cc(Cl)ccc2F)cc(Cl)c1=O [Compound 525] | H (H shows more than 50% of control values) | L (L shows 50% or less of control values)
CN1C(=O)CCC(c2ccccc2F)=C1c1c(F)cc(F)cc1F [Compound 526] | L (L shows 50% or less of control values) | L (L shows 50% or less of control values)
CCn1c(-c2c(F)cc(F)cc2F)c(-c2ccccc2F)ccc1=O [Compound 527] | H (H shows more than 50% of control values) | L (L shows 50% or less of control values)
Cn1c(-c2c(F)cc(F)cc2F)c(-c2ccccc2F)ccc1=O [Compound 528] | H (H shows more than 50% of control values) | H (H shows more than 50% of control values)
CCn1c(-c2c(F)cc(F)cc2F)c(-c2ccccc2F)cc(Cl)c1=O [Compound 529] | H (H shows more than 50% of control values) | L (L shows 50% or less of control values)
CCn1c(-c2c(F)cc(OC)cc2F)c(-c2ccccc2F)ccc1=O [Compound 530] | H (H shows more than 50% of control values) | L (L shows 50% or less of control values)
CCn1c(-c2c(F)cc(OC)cc2F)c(-c2ccccc2F)cc(Cl)c1=O [Compound 531] | H (H shows more than 50% of control values) | L (L shows 50% or less of control values)
CCn1c(-c2c(F)cc(F)cc2F)c(-c2ccccc2F)cc(Br)c1=O [Compound 532] | H (H shows more than 50% of control values) | L (L shows 50% or less of control values)
CCn1c(-c2c(F)cccc2F)c(-c2cc(OC)ccc2Cl)cc(F)c1=O [Compound 533] | H (H shows more than 50% of control values) | L (L shows 50% or less of control values)
CCn1c(-c2c(F)cccc2F)c(-c2cccc(F)c2F)cc(C)c1=O [Compound 534] | H (H shows more than 50% of control values) | L (L shows 50% or less of control values)
Cn1c(-c2c(F)cccc2F)c(-c2cccc(F)c2F)ccc1=O [Compound 535] | H (H shows more than 50% of control values) | L (L shows 50% or less of control values)
Cn1c(-c2c(F)cccc2F)c(-c2cccc(F)c2F)cc(Br)c1=O [Compound 536] | H (H shows more than 50% of control values) | L (L shows 50% or less of control values)
Cn1c(-c2c(F)cccc2F)c(-c2cccc(F)c2F)cc(Cl)c1=O [Compound 537] | H (H shows more than 50% of control values) | L (L shows 50% or less of control values)
Cc1cc(-c2cccc(F)c2F)c(-c2c(F)cccc2F)n(C)c1=O [Compound 538] | H (H shows more than 50% of control values) | H (H shows more than 50% of control values)
O=c1ccc(-c2cc(Cl)ccc2F)c(-c2c(F)cccc2F)n1CC(F)F [Compound 539] | H (H shows more than 50% of control values) | H (H shows more than 50% of control values)
O=c1c(Cl)cc(-c2cc(Cl)ccc2F)c(-c2c(F)cccc2F)n1CC(F)F [Compound 540] | H (H shows more than 50% of control values) | L (L shows 50% or less of control values)
